Reference: PubChem BioAssay AID1963576 (National Center for Advancing Translational Sciences (NCATS), 2024)
In all, about 46,000 compounds went through this assay and about 60 (0.1%) were called active. About 3% were inconclusive and are not listed. Calls follow the shape of the dose curve; as a rule, active = well fitted inhibition curve with a large enough effect; inconclusive = small, poorly fitted or top-dose-only effect; inactive = no such curve, though single readings can be large or run the other way. The list shows a part of the results.

Test: Primary qHTS assay for Inhibitors of ovarian cancer metastasis using an organotypic tumor microenvironment (TME) model. Also: nearly all actives have a fitted effect of over 65% in size.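 As to activity change, negative = inhibition: plate controls were DMSO wells for no effect and tomatine positive control wells for full effect.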
Conditions: SKOV3ip1-GFP adhesion/invasion on 3D omental model, fluorescence; series mostly up to 45.8 µM; activity change, negative = inhibition: at the top concentration
In short: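 A 3D layer of primary human omental fibroblasts, mesothelial cells, fibronectin and collagen I, grown 48 hr, received SKOV3ip1-GFP cells in serum-free medium plus compounds at 0.36-46 umol/L. After 2 hr RT and 16 hr 37 C, fixed adherent GFP cells were counted; normalized to DMSO and tomatine.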

outcome, inactive:
CN(C(=O)CSc1nnc(NC(=O)Nc2ccccc2)s1)c1ccccc1
COC(=O)c1c(NC(=O)c2ccc(S(=O)(=O)N3CCC(C)CC3)cc2)sc2c1CCN(C)C2
Brc1cccc(-c2nnn3c2nc(NCc2ccc4c(c2)OCO4)c2ccccc23)c1
CCCC(=O)N(c1ccc2oc(C)c(C(C)=O)c2c1)S(=O)(=O)c1ccc(CC)cc1
Cc1cc(C)c(NC(=O)CSc2ncc3c(n2)-c2cc(Cl)ccc2N(C)S3(=O)=O)c(C)c1
COCCCNC(=O)c1cc2cc(S(=O)(=O)N3CCCCC3)ccc2n1C
Cc1ccc2nc(NC(=O)c3nc(SCc4ccccc4F)ncc3Cl)sc2c1
CCOC(=O)N1CCC(NC(=O)c2cnn(-c3ccc(F)cc3)c2-n2cccc2)CC1
CCOCCn1ccc2c(OCC(=O)NCc3ccc(F)cc3)cccc2c1=O
O=C(CSc1ncc2c(n1)-c1cc(Cl)ccc1N(Cc1ccccc1)S2(=O)=O)Nc1ccc(F)cc1F
CC(=O)N1CCc2c(sc3c2c(=O)n(-c2ccc(F)cc2)c(=O)n3Cc2cc(C)ccc2C)C1
Cc1cccc(N(C)S(=O)(=O)c2ccc(-c3cc(C)no3)s2)c1
COc1cccc(-n2c(=O)c3c(C)c(C(=O)N(C)C)sc3n(Cc3cccc(C)c3)c2=O)c1

Activity change, negative = inhibition, inactive:
Cc1ccccc1CNC(=O)c1cnc2sc(N3CCC(C)CC3)nn2c1=O 0.939%
COc1cc2ccccc2cc1C(=O)Nc1cccc(-c2nc3cc(C)c(C)cc3o2)c1 -6.37%
CC(C)NC(=O)C1CCC(Cn2c(=O)c3sccc3n(Cc3ccc(F)cc3)c2=O)CC1 (centres undefined) 1.95%
COc1ccc(-n2ncc(C(=O)NCc3ccco3)c2C2CCN(C(=O)OC(C)(C)C)CC2)cc1 17.4%
O=C(NCC(c1cccnc1)N1CCc2ccccc21)c1cccc(Br)c1 (centres undefined) -0.0587%
COc1ccc(N2CCN(c3ncnc4c3cnn4C)CC2)cc1 1.48%
CCOc1ccc(CCNC(=O)c2cc3cccc4c3n2CCS4)cc1 4.69%
COc1cccc(NC(=O)C2CCCN(S(=O)(=O)c3cn(C(C)C)cn3)C2)c1 (centres undefined) 6.29%
COC(=O)c1c(-c2ccc(Cl)cc2)noc1N1CCN(c2cc(C)ccc2C)CC1 21.4%
CCN(CC)S(=O)(=O)c1ccc2c(c1)N(CC(=O)Nc1ccccc1F)C(=O)C1CCCN21 (centres undefined) -0.192%
CCCNC(=O)Cn1c(=O)n(CC2CCC(C(=O)NC)CC2)c(=O)c2sccc21 (centres undefined) 13.9%
CCOc1cccc(NC(=O)C2CC(=O)N(CC)C(=Nc3ccc(F)cc3)S2)c1 (centres undefined) 8.01%
O=C1CS(=O)(=O)C2(C(=O)N(Cc3ccccc3Cl)c3ccccc32)N1c1ccc(F)cc1 (centres undefined) 4.18%
Cc1ccc(NC(=O)/C(C#N)=C/c2ccc(-c3ccc(Cl)c(C(=O)O)c3)o2)cc1C 5.97%
CCC(C)(C)NC(=O)C1CCN(S(=O)(=O)c2ccc3c(c2)CCCN3C(C)=O)CC1 0.459%
Cc1cccc(C(=O)Nc2ccc(S(=O)(=O)N3CCC(c4nc5ccccc5s4)CC3)cc2)c1 -3.2%
COc1ccc(NC(=O)c2cc(C(C)=O)n3ccccc23)cc1 -0.9%
COc1ccc(NC(=O)c2oc3ccc(S(=O)(=O)N4CCCCC4)cc3c2C)cc1Cl 3.01%
Cc1ccc(CN2CCC(CNC(=O)c3cnn(-c4ccccc4)c3C3CCN(C(=O)OC(C)(C)C)CC3)CC2)cc1 6.19%
COCCn1c(=O)[nH]c2cc(C(=O)N3CCN(c4ccc(Cl)cc4)CC3)ccc2c1=O -9.85%
O=C(O)c1ccc(NCc2nc3ccccc3n2CCOc2ccccc2Cl)cc1 -4.22%
O=C(CSc1nc(=O)n(Cc2cccnc2)c2c1CCC2)Nc1cccc(Cl)c1 -1.91%
Cc1nc(-c2ccc(Cl)cc2)sc1CCNC(=O)C(=O)Nc1ccc2c(c1)OCCO2 -0.354%
CCOc1cc2[nH]c(=O)n(Cc3ccc(C(=O)N4CCN(c5ccccc5)CC4)cc3)c(=O)c2cc1OCC -16%
CSc1ncc(Cl)c(C(=O)Nc2cc(C(F)(F)F)ccc2Cl)n1 -1.56%
Cc1ccc(-c2nn(-c3ccc(F)cc3F)c3c2cnc2ccc(F)cc23)cc1 4.28%
COc1ccc(N2CC(NC(=O)C(=O)c3c[nH]c4ccccc34)CC2=O)cc1 (centres undefined) -9.81%
COc1ccc(CNC(=O)CC(C)n2nc(C)cc2C)cc1 (centres undefined) 8.7%
Cc1cc(C)cc(NC(=O)N2CCC(C(N)=O)(N3CCCCC3)CC2)c1 -35.7%
COc1ccc(N(C)C(=O)c2nn(-c3ccc(C)cc3)c(=O)n(C)c2=O)c(OC)c1 5.12%
CCN1c2ccccc2-n2cccc2C12CCN(C(=O)Nc1ccccc1Br)CC2 8.87%
CC1CCCN(c2ncnc3c2cnn3-c2ccc(F)cc2)C1 (centres undefined) -1.46%
CCCCn1cc(S(=O)(=O)c2ccccc2)c(=O)c2cc(F)c(N3CCN(CCC)CC3)cc21 -22.9%
O=C(CCSCc1cccc(Cl)c1)NCc1ccccc1Cl 3.1%
O=c1c(N2CCN(c3ccccc3)CC2)csc2ccc(Cl)cc12 3.02%
CC(C)Oc1ccc(C(=O)N2CCN(c3nc4c(F)cc(F)cc4s3)CC2)cc1 -3.5%
Cc1ccccc1-n1c(SCC(=O)Nc2ccc(Cl)cc2Cl)nc(O)cc1=O 3.19%
CC(C)(C)c1ccc(-c2nc(SCCOc3ccc(Cl)cc3)n3[nH]c(=O)cc3n2)cc1 -15.1%
COc1ccc(-c2nc3c4ccccc4n(CC(=O)Nc4ccc(C(C)C)cc4)c(=O)n3n2)cc1 4.2%
COc1ccc(NC(=O)CSC2=Nc3ccccc3C3=NC(CC(=O)NCc4ccccc4OC)C(=O)N23)cc1Cl (centres undefined) 5.42%
COc1ccc(C2CC(=O)N(Cc3ccccc3C)c3c2c(C)nn3-c2nc(C)cc(C)n2)c(OC)c1 (centres undefined) -1.39%
COc1ccc(S(=O)(=O)c2c(O)c(C)cc(NS(=O)(=O)c3ccc(Cl)cc3)c2C(C)C)cc1 12%
COc1ccc(-c2noc(-c3ccc(N4CCN(C)CC4)c([N+](=O)[O-])c3)n2)cc1 8.2%
CCc1sc(Nc2cccc(C)c2)nc1-c1cc2cccc(OC)c2oc1=O -0.164%
Cc1ccc(S(=O)(=O)N2CCc3cc(C(=O)N(C)Cc4ccccc4)ccc32)cc1 9.51%
COc1cc(C(=O)N2CCN(CCc3ccncc3)CC2)cc(OC)c1OC -1.54%
